According to PubChem BioAssay AID686970 (National Center for Advancing Translational Sciences (NCATS), 2013):
The campaign covered roughly 360,000 compounds. About 6,000 (1.7%) were called active. The inconclusive results got no clear call from the source; some entries with a clear call stand among them for comparison. Calls follow the shape of the dose curve; as a rule, active = well fitted cell-killing curve with a large enough effect; inconclusive = small, poorly fitted or top-dose-only effect, or effect the other way; inactive = flat fitted curve, though single readings scatter. No potency is given beside an inconclusive call; the fits are too rough.
Potency is read from the fitted curve at half-maximal effect; tags tell the direction and shape of the fitted curve.

Assay: qHTS for induction of synthetic lethality in tumor cells producing 2HG: qHTS for the HT-1080-NT fibrosarcoma cell line; also: nearly all actives have a fitted effect of over 55% in size
Details: HT-1080-NT fibrosarcoma viability, CellTiter-Glo ATP luminescence, 48 h; activity, negative = less viability: at 46.1 µM (top of the series)
From the text: Unbiased genomic sequencing for 22 glioma genomes found recurrent mutation of IDH1 on chromosome 2q33, a gene encoding the cytosolic isoform of IDH1 associated with the tricarboxylic acid cycle (TCA) that catalyzes the oxidative decarboxylation of isocitrate, yielding alpha-ketoglutarate and CO2 via NADP+ to NADPH conversion. Subsequent studies confirmed the recurrent IDH mutations in up to 70% of secondary gliomas and in 10% of AML cases. In addition, the somatic mutation of cancer-associated IDH1 is a point mutation resulting in various amino-acid substituents at Arginine132 (IDH1 R132), a key residue found in the enzyme's active site that when mutated, results in the loss-of-function in metabolizing isocitrate but confers a gain-of-function to produce the oncometabolite 2-hydroxyglutarate (2HG). This in effect defines IDH1 as an oncogene and provides an extraordinary opportunity to discover chemical probes against mutant IDH1 that may translate into much needed new therapies for glioma and AML patients.
This assay aims to perform a synthetic lethal screen for chemical probes specific for 2HG-producing tumor cells using matched paired cell lines (1) HT-1080-NT fibrosarcoma cell line that overproduces 2HG and (2) HT-1080-IDH1KD cell line which has IDH1 expression knocked-down. Desirable compounds are toxic to the NT fibrosarcoma cells but not to the IDH1KD cell line. The data in this AID corresponds to the results of the qHTS against the HT-1080-NT fibrosarcoma cell line.
[1] Dang L, Jin S, Su SM. IDH mutations in glioma and acute myeloid leukemia. Trends of Mol Med. 2010; 16(9): 387-97.
[2] Dang L et al. Cancer-associated IDH1 mutations produce 2-hydroxyglutarate. Nature. 2010; 465(7300):966.
NIH Molecular Libraries Probe Production Centers Network [MLPCN]
NIH Chemical Genomics Center [NCGC]
Assay Submitter (PI): Lenny Dang Ph.D., Agios Pharmaceuticals
Suspensions of trypsinized HT-1080-NT cells were dispensed into white, tissue culture-treated, solid 1536-well plates at 5uL/well (750 cells/well final concentration) in RPMI medium supplemented with 5% FBS. Plates were incubated at 37 degrees C for 2 hours, after which 23 nL of compounds or DMSO were delivered to each well using a pin tool. Plates were then incubated at 37 degrees C for an additional 48 hours. CellTiter-Glo viability reagent (Promega) was dispensed into wells (2.5uL/well) and incubated at room temperature for 10 minutes. The plates were measured on a PerkinElmer ViewLux plate reader for luminescent signal (clear filter, 1 sec exp). DMSO-treated control wells and media-only (no cells) control wells were used to normalize %Activity of identified toxic compounds; DMSO-treated wells corresponded to 0%Activity (100% viability), while media-only controls were used to normalize 100%Activity (0% viability).
Concentration-response curves were fitted to the signals arising from the resulting luminescence. The concentration-effect curves were then classified based on curve quality (r2), response magnitude and degree of measured activity, and compounds were subsequently categorized based on their curve class.
With `O=c1[nH]c2ccccc2n1C1CCN(C(c2cccs2)c2nnnn2-c2ccc3c(c2)OCCO3)CC1` (centres undefined) the Potency was inconclusive [cytotoxic, partial curve, poor fit]. In the case of `C[C@]12CC[C@H]3C(CCC4(O)CC(O)CC[C@]34C=O)C1=CC[C@H]2c1ccc(=O)oc1` (some centres undefined), the Potency is reported as active: 13 µM. With `O=C1Nc2ccccc2C1Cc1nc2ccccc2c(=O)n1-c1ccccc1` (centres undefined) the “activity, negative = less viability” value was inactive: 1.6%. With `CN(C)c1ccc(/C=C/[N+](=O)[O-])cc1` the Potency was inconclusive [cytotoxic, single point]. For `COc1cc2c(cc1OC)[C@@H]1C(=O)c3ccc4c(c3O[C@@H]1CO2)C[C@H](C(C)C)O4`, the activity, negative = less viability was inconclusive: -35.6% [cytotoxic]. In the case of `COCCCNC(=O)Cn1cc(/C=C2\C(=O)NC(=O)N(c3ccccc3F)C2=O)c2ccccc21`, the Potency is reported as inconclusive [cytotoxic, single point]. In the case of `COc1ccc(-n2nnnc2C(c2cccc(OC)c2OC)N2CCC(n3c(=O)[nH]c4ccccc43)CC2)cc1` (centres undefined), the Potency is reported as inconclusive [cytotoxic, single point]. For `COc1ccc2c3c1O[C@H]1C[C@@H](O)C=C[C@@]31CCN(C)C2`, the Potency was active: 8.2 µM. With `O=C1NCN(c2ccccc2)C12CCN(C(c1ccccc1)c1nnnn1-c1ccc3c(c1)OCCO3)CC2` (centres undefined) the Potency was inconclusive [cytotoxic, single point]. With `C[C@H]1O[C@@H](O[C@H]2[C@@H](O)C[C@H](O[C@H]3[C@@H](O)C[C@H](O[C@H]4CC[C@@]5(C)[C@H](CC[C@@H]6[C@@H]5CC[C@]5(C)[C@@H](C7=CC(=O)OC7)CC[C@]65O)C4)O[C@@H]3C)O[C@@H]2C)C[C@H](O)[C@@H]1O` the Potency was active: 0.206 µM. With `Cc1ccc(OCC(=O)N2CCN(Cc3cccnc3)CC2)cc1` the Potency was inconclusive [rising, full curve]. With `CC(c1ccccc1)(c1ccccc1)c1ccncc1` the Potency was inconclusive [cytotoxic, partial curve]. With `CNC(=O)OCCc1n(C)cc[n+]1C` the Potency was inconclusive [rising, full curve]. In the case of `CCNC(=O)C1OC(n2cnc3c(N)ncnc32)C(O)C1O` (centres undefined), the Potency is reported as inconclusive [rising, partial curve]. For `CN(C(=O)Oc1ccc(Cl)c2cccnc12)c1ccccc1`, the “activity, negative = less viability” value was inactive: 15.5%. With `NC(Cc1ccc(O)cc1)C(=O)NN=Cc1ccc(N(CCCl)CCCl)cc1` (centres undefined) the Potency was inconclusive [cytotoxic, full curve]. For `C=C(C)[C@@H]1CC[C@]2(C(=O)O)CC[C@]3(C)C(CCC4[C@@]5(C)CC[C@H](O)C(C)(C)C5CC[C@]43C)C12` (some centres undefined), the Potency was inconclusive [cytotoxic, single point]. For `COc1ccc2c(c1)C(NC(C)=O)CCc1cc(OC)c(OC)c(OC)c1-2` (centres undefined), the Potency was active: 0.0058 µM. For `C[C@]12CCC3C(CC[C@@H]4C[C@@H](O)CC[C@]34C)C1CC[C@@H]2O` (some centres undefined), the “activity, negative = less viability” value was inactive: 1.21%. With `Cc1ccc(N2C(=O)CC(=O)NC2=O)cc1` the “activity, negative = less viability” value was inactive: 1.33%. For `CC(=O)O[C@@]12CO[C@@H]1C[C@H](O)[C@@]1(C)C(=O)[C@H](O)C3=C(C)[C@@H](OC(=O)[C@H](O)[C@@H](NC(=O)c4ccccc4)c4ccccc4)C[C@@](O)([C@@H](OC(=O)c4ccccc4)C12)C3(C)C` (some centres undefined), the Potency was active: 0.0073 µM. For `O=c1c2ccccc2nc(-c2ccccc2)n1-c1cccc(O)c1`, the “activity, negative = less viability” value was inactive: 3.53%. In the case of `C[C@H]1CN([C@@H](C)CO)C(=O)CCCn2nncc2CO[C@H]1CN(C)C(=O)Oc1ccc2ccccc2c1`, the “activity, negative = less viability” value is reported as inactive: 8.76%. With `COC(=O)C1C2CC[C@@H](CC1OC(=O)c1ccccc1)N2` (some centres undefined) the activity, negative = less viability was inconclusive: 32.2%. With `NC(N)=Nc1ccc2[nH]c3c(c2c1)C[C@@]1(O)[C@H]2Cc4ccc(O)c5c4[C@@]1(CCN2CC1CC1)[C@H]3O5` the Potency was active: 14.6 µM. In the case of `COC(=O)C1=C(c2ccc(Cl)c(C(F)(F)F)c2)C[C@@H]2CC[C@H]1N2C(=O)NCCOc1ccccc1Cl`, the Potency is reported as inconclusive [cytotoxic, single point]. For `CCN1CCN(C(=O)COc2ccc(S(=O)(=O)N3CCOCC3)cc2C)CC1`, the Potency was inconclusive [rising, single point]. In the case of `COc1cc(C2c3cc4c(c(O)c3CC3COC(=O)C32)OCO4)cc(OC)c1OC` (centres undefined), the Potency is reported as active: 0.0052 µM. In the case of `CCCc1nnc(NC(=O)CCC(=O)N2CCC3(CC2)OCCO3)s1`, the Potency is reported as inconclusive [rising, single point]. With `COC(=O)C1=C(c2ccc(C(C)=O)cc2)C[C@@H]2CC[C@H]1N2C(=O)NCC1CC1` the “activity, negative = less viability” value was inactive: 14.9%. For `CCc1ccc(NC(=S)NC2CC3CCC(C2)N3Cc2ccco2)cc1` (centres undefined), the Potency was inconclusive [cytotoxic, single point]. With `Cc1sc2ncnc(N3CCC(C(=O)Nc4ccc(C#N)c(Cl)c4)CC3)c2c1C` the Potency was inconclusive [cytotoxic, single point]. With `CCCCCCn1c(=O)c(C(=O)Nc2cccc(C)n2)c(O)c2ccccc21` the “activity, negative = less viability” value was inactive: 4.06%. For `COc1ccc(C2NCc3ccc4c(c3-n3cccc32)OCO4)cc1O` (centres undefined), the activity, negative = less viability was inconclusive: -70.2%.
